According to the supplement of paper PMC11417369:
± gives the standard deviation of the averaged measurements. The list shows a part of the results.

What follows are sequences tested on PfAP2-EXP AP2 domain (GST-tagged) (assay: gcPBM binding intensity (ln(normalized median fluorescence intensity)); higher = stronger DNA binding).
Summary of the method: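 GST-fused DNA-binding domains of P. falciparum, expressed in E. coli, were applied at about 25 μg on average for 1 h to an Agilent 4 × 180k array of primer-extended double-stranded 36-bp intergenic genomic probes and negative controls. Binding intensity is the highest Masliner-normalised natural-log median intensity across replicate spots of either probe orientation, measured with Alexa488 anti-GST antibody and a 488 nm scan.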

Point of comparison: “TCAAATTACTAAAATACACACATATTATAGATATAT [CACACA_site7233]”, “gcPBM binding intensity (ln)” value 8.21 ± 0.49. Against it:
- ATAATAAGCAGACACACACACACAAAAAAAAAAAAA [CACACA_site6477] — within error, 8.32 ± 0.74
- TAAATAAATACATACACACACATACAGATATATATA [CACACA_site5690] — within error, 8.72 ± 0.47
- AAACATTTACTATATTGTACTTAAGATCTTATCGTA [XGTACX_site3919] — within error, 8.44 ± 0.31
- TAATATGACATAAGGGGTACTATATATATATATATT [XGTACX_site386] — within error, 8.7 ± 0.45
- TATTTTAACATGTTTTCAAAAATAAAACATATAAAT [CACACA_negctrl_site1598] — within error, 8.11 ± 0.4
- GAACTTTACAACCCAACACACAAAAAAGAAAAGAAA [CACACA_site1717] — within error, 8.7 ± 0.56
- AATAGGAAAAGAAAAGCACACACATAAATAAATATA [CACACA_site8062] — within error, 8.88 ± 0.49
- ATATGTTCATTTAAAAGTACTTAATATAACATTTTT [XGTACX_site3332] — within error, 8.39 ± 0.34
- ATTGGTGTATGTTTATGTACTTATCACAATTATGAA [XGTACX_site7055] — within error, 8.65 ± 0.41
- TGTATATATAATAAAACACACATTTTTAATGTGCTC [CACACA_site1437] — within error, 8.01 ± 0.3
- GTTTTATAAAAAGGCGCACACATATACATAAATATA [CACACA_site1864] — within error, 9.04 ± 0.4
- GATAAAGTACTTTATACACACAAATATTTATATATA [CACACA_site3974] — within error, 8.6 ± 0.48
- AAAAAGAAAATATATACACACCAAAAAAAAAAAAAA [CACACA_site5698] — within error, 8.15 ± 0.65
- TAAATACAAAAATGCACACGAAAAGTAATATATATA [CACACA_site6151] — higher, 9.18 ± 0.22
- TTAATCCACAGACACACACACACAAAATAAAATACA [CACACA_site244] — within error, 8.62 ± 0.47
- TTATTTATGAAGTATACACACAATATATATATATAT [CACACA_site1248] — higher, 9.9 ± 0.33
- TAGTTCTTTTAATTTAGTATTATACAATATTGGAAA [CACACA_negctrl_site521] — within error, 8.32 ± 0.45
- AATATATTAAATATTACACACATACATTTAGTGTAA [CACACA_site5145] — within error, 8.32 ± 0.4
- TATATATTAAACTTTGCACACATAATTTAACTACAA [CACACA_site3440] — within error, 8.54 ± 0.16
- ATTAATAATATTACATGTACATAATATAATTGAAAA [XGTACX_site5084] — within error, 8.41 ± 0.33
- TTTATTTTATTCACTATCATAAGCAAAACTTAAACA [GTGCAC_negctrl_site287] — within error, 8.29 ± 0.35
- ATTTTTTTTTTTTTTTTTTTTTTTTTTTTTGTTGTT [CACACA_negctrl_site1313] — within error, 7.92 ± 0.55
- TAGTTAATATGATTATGTACATATATATATTAATTT [XGTACX_site1750] — within error, 8.22 ± 0.27
